For 167 variants, self-cleavage results are on record in the RNAGym collection of RNA variant scans (doi:10.7554/elife.90254).

B1: LINE1-mini (parent)
chain: GGCAGAGCUCAACACAGCGUGGCAAAGUGGCUGUGGCUAGACUGCC

Read counts are not given, so values of variants with three or more changes are uncertain.

The series covers variants of B1. The experiment in a line: self-cleavage, relative activity (ratio to wild type); higher = more cleavage; in vitro, sequencing; the parent is a self-cleaving ribozyme.
Turning to A6U C8G A26U G44U C46U, the self-cleavage was 0.06. In the case of C10A A16G G17C it was 0.06; in that of U9A G35U U38C, 0.06; in that of A4C G5A A14G G19A G21U C23U A25G A39G, 0.03. For A14C C31G A41U, the self-cleavage is 0.02. In the case of A16U C18G G35C U38A U43G it was 0.22; in that of C18U G27U C45A, 0.48; in that of G2A G5C G7C A16C G30A G33A G40C, 0.02. Turning to G29A G44U C45U, the self-cleavage stood at 0.09.

Take C10G G27U G30C: the self-cleavage amounted to 0.31.

Consider A12G A14G A25G A39U, for which the self-cleavage worked out at 0.01. The figure for A11U G29C C31G is 0.03; for A6U G7C U9G A11U G21A U32G A39G it is 0.

Consider U9A A11U G33U, for which the self-cleavage amounted to 0.04. G2A C8G A14C C37A: the self-cleavage was found to be 0.01.

Take C15U G19U C45A: the self-cleavage was 0.39. The figure for G5U G7U A12U A26C is 0.12; for A14C A24C U28G it is 0. Consider A11U C13U U20C G44C, for which the self-cleavage is 0.04. On to G2A G19A C42U U43A, for which the self-cleavage was found to be 0.11.

In the case of G19U C23G C45U, the self-cleavage amounted to 1.38.

As for A14U U38A A41C C42A, the self-cleavage came out at 0.05. In the case of C3G G7U C8G A12C G44A C46U it was 0.02; in that of C3A G5U A14U G27U U38A C46A, 0.48.

With A6C G27C A39U, the self-cleavage is 0.06. In the case of G7A A16U G21C it was 0.12; in that of A12C G17U U43G, 0.

On to G5U C8A C15U G17A A25G, for which the self-cleavage stood at 0.29.

For the variant A12G C13U G17C C18U U28C, the self-cleavage is 0.02. The figure for U9C A25G C37A is 0.01; for G2A C10G C23G A26G C42U it is 0.02. The figure for C3A G27C U38A is 0.17; for U28A C31A G44C it is 0.08. In the case of C3A C15A G21U it was 0.31; in that of G19U G27U A41U, 0.27; in that of C10G G30U C45U, 0.05. For C13G G35U U38G, the self-cleavage turned out to be 0.05. Take G2A C15U G30A U34G: the self-cleavage was 0.48. The figure for A6C A11G G44A is 0.01; for A4C A12U G35A it is 0.05; for C8A U9G G29U it is 0. With G1A A6G U20C, the self-cleavage amounted to 0.13.

With C10A A11C G21A G33U, the self-cleavage is 0.01. In the case of C8A A26C A39G A41U it was 0.03. In the case of C3U A4C G5C C18G C46A it was 0.03; in that of G2U G7U C18G C23A U38C, 0.01. The figure for G22C G27A C45A is 1.22; for A6G A26C G29C C37A it is 0. Take A6U A12C G29U U34C: the self-cleavage worked out at 0.02. The figure for A12C U34A U38C is 0.03; for C13U G21C G29U it is 0.47; for G5A A39U C46U it is 0.05.

Regarding C18A G19A G36U C37U, the self-cleavage is 0.03. In the case of G2A A6G A12G A25C C45A it was 0.01. The figure for A6U A11U G36A is 0.01; for G1C C3U C13U G21U G27C C46G it is 0.06.

For A4G G17U C31U, the self-cleavage was 0.07. The figure for U20C C23A G36U is 0.02; for C10A G19C A25G it is 0.03; for A12U G27A U28G it is 0.03. In the case of C15U G35C G36C C45A it was 0.01; in that of U20A U32C G44C, 0.07. In the case of A14G C15U G17A G22U U38G it was 0.

For A24C G33A U34A, the self-cleavage turned out to be 0.06. The figure for A11G U20C C31U is 0.02; for A11G A26G G40C C45U it is 0.02. The figure for C3A G7U U38A is 0.06; for G2A C3U C23U U28C U34C C37U it is 0.54; for A4U U9C A24C G36C U38C it is 0. The figure for C18G G19U G29C is 0.12.

Turning to C13U G29U C42G G44C, the self-cleavage turned out to be 0.04. In the case of A4C G22A G30A it was 0.09; in that of U9A G17U A26C, 0.09; in that of G5C C37U A39G, 0.03. In the case of C15U C23G G30U G40U it was 0.04. G1C A6U C8U A14U G22U C46G: the self-cleavage is 0.07. The figure for G7A C13G C37A is 0.16. In the case of C10U A12U C23G it was 0.04. Regarding U32C U34G U38G G44C, the self-cleavage amounted to 0.01. The figure for C31G G33U G35A C45U is 0.05; for A16U C23A G27C A39G G40A it is 0.06. For the variant C8U A11C A25G, the self-cleavage is 0.

As for C13A G29C C37U, the self-cleavage worked out at 0.03. The figure for U20A G30A C45A is 0.28; for C13U C18G A24G A26C G30U C31A it is 0.04. The figure for C15A C31A G35A is 0.03; for C3U A16G G21A G44A it is 0.86; for C3A A25C A26C C45U C46A it is 0.44. In the case of C15G G27A C46A it was 0.04; in that of C15A C23A A24U G30U, 0.05. Regarding G2U C23G A24C C37U, the self-cleavage is 0.11. The figure for A4U G27U G33U A39U is 0.04; for A6C A25C A41G G44U C46U it is 0.15; for C23A A24C U43G it is 0. In the case of A11C C13A G30C it was 0.02; in that of A16U G17C G19U G29A, 0.04. The figure for G1U C13G G17A is 0.11; for A6C U34A G35A it is 0.05; for C15A G17C C18U C23G G36U U38C it is 0.05. On to G1A G22A G29C, for which the self-cleavage stood at 2.84.

Take C3A G17A G27U U34C: the self-cleavage stood at 0.06. In the case of C15U A25C U38A C46A it was 0.09. In the case of G19C G29A U32A it was 0.17; in that of C3G C8G U34C G44C, 0; in that of G7A A24U A25G A26C G33U G35C, 0.14. In the case of G21C C37U C42A C46A it was 0.01. For the variant A25C A26U G27A G29U, the self-cleavage stood at 0.59. The figure for G2A C10A C18G A41U G44U is 0.02; for U9A G17A C31U G33A it is 0.02; for C10G C18U G27A G35U it is 0.

Turning to G2C A11C A16C U20G, the self-cleavage worked out at 0.01.

As for A12G A14G G17C C18A G29A, the self-cleavage amounted to 0.01. In the case of U9G G22A G40U it was 0.03. With G22C A24C G29C, the self-cleavage came out at 0.08. Regarding G5C G22C C46G, the self-cleavage was found to be 0.01.

As to G1A U28G U34G, the self-cleavage amounted to 0.06. In the case of C10A U28C G30A C42G it was 0; in that of G2U U9C U20C A39U, 0.03. In the case of G1U G27C G29C G30A A39G it was 0.07; in that of C8G A24G U28G U43G C45A, 0.07; in that of G2U U32G C45U, 0.01. In the case of G7U A14C G40U C42U, the self-cleavage turned out to be 0.11. In the case of A4G C10A G19C U43A it was 0. In the case of A11U C13A A41U C46U, the self-cleavage stood at 0.02. In the case of G2A A25G G33C it was 0.08; in that of A16C A25U G29A G30U C42G, 0; in that of G1U C3U G7A C13G A16G G27U G29U U32C, 0.01. In the case of A12C U20C C45G it was 0.05; in that of C10A G17C G40U, 0.04. The figure for A6U U9A G22U is 0.28; for C13G G19A U34C G35C it is 1.18. As for G2U A39U C42A, the self-cleavage came out at 0.09. The figure for A4C G7C C8U A11U C15A A25U U34G is 0.02; for C15U C23U G30U U32A it is 0.04; for C8U G29C C31U G35U U43A it is 0.14. The figure for C13G U34A C46A is 0.05. In the case of G19A G22C G30U it was 0.56.

G1C G2C G36U: the self-cleavage was determined as 0.03. In the case of C3G A11C G17C it was 0.04; in that of A6U G33U A39U C42A, 0.07. In the case of U34A C42G G44A it was 0.01; in that of G2U U28G A41U, 0.03. In the case of A4G A16C A25C G29A it was 0.05; in that of A26C G30U G36A, 1.66. In the case of G1U G19U C42U C45A, the self-cleavage turned out to be 0.07. On to A6G G22C A41U, for which the self-cleavage came to 0.

For C18G G21C U43A, the self-cleavage is 0.02.

Consider G7A C18U U38C, for which the self-cleavage is 0.19.

For C8A C18G G19C U20A, the self-cleavage was 0.1. The figure for C8U A11U C13G G19A G40U C42G is 0.01; for C8G G21U G27U it is 0.03.

With C10U C15G G21U C42U, the self-cleavage is 0.03.

A4G G33U G35U: the self-cleavage is 0.07. The figure for C13U C42A C45U is 0.14; for G5U A12U C13U C15U G22U C31A C42U it is 0.03. In the case of G27U U28C C31G, the self-cleavage is 0.02.

Consider A12G C13U C15G A16G C31A C37A U43C, for which the self-cleavage was 0.

As to C10A U20A A26U, the self-cleavage worked out at 0.05. In the case of C23U U38G A41U it was 0.02.

Take C15G G19U G29U: the self-cleavage turned out to be 0.02.

As for C10A A24G G33A, the self-cleavage was 0.02. In the case of G5U C15A A39G C46A, the self-cleavage came to 0.02.

With G7U A14U A24U G40A, the self-cleavage stood at 0.44. The figure for G7U U9C G19A G29A G36C C42U is 0.03; for A12U C13A U20A A26C G29A G33C it is 0.05.

In the case of G2C G19C U28C G40U, the self-cleavage was 0.04. The figure for A4C C8G A25C is 0.05.
